Laboratory results as given in PubChem BioAssay AID924 (National Center for Advancing Translational Sciences (NCATS), 2007).
About 1,200 (0.92%) of roughly 130,000 compounds were called active. This list was built around the results that the source calls inconclusive (neither active nor inactive); the mix of calls is not that of the screen. Calls come from the whole dose curve; as a rule, active = well fitted cell-killing curve with a large enough effect; inconclusive = small, poorly fitted or top-dose-only effect; inactive = no such curve, though single readings can be large or run the other way. A potency beside an inconclusive call is a rough fit, not a confirmed value.

Assay: qHTS Screen for Compounds that Selectively Target Cancer Cells with p53 Mutations: Cytotoxicity of p53ts Cells at the Permissive Temperature; note: nearly all actives have a fitted effect of over 55% in size;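 for activity change, negative = cytotoxicity: 0% = DMSO and -100% = full killing by reference compound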
Settings: H1299-p53A138V at 32C, ATP luminescence viability, 24 h; activity change, negative = cytotoxicity: at 46.1 µM (top of the series)
In short: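 Viability by ATPlite luminescence after 24 h compound treatment (up to 46 uM) at the permissive 32C. Cells are H1299 carrying p53 A138V. Scale runs from DMSO basal to 100 uM tamoxifen as full kill; AC50 from Hill fits.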
Potency is the fitted concentration of half-maximal effect; tags give direction and shape of the fitted curve.

Row | Compound | Potency | activity change, negative = cytotoxicity
1 | COc1cc(C(=O)NC(c2ccc(Cl)cc2)c2cc(Cl)c3cccnc3c2O)cc(OC)c1OC (stereo not drawn) | inconclusive: 0.794 µM [cytotoxic, full curve, poor fit] | –
2 | COc1cc(C2c3c(-c4ccccc4O)n[nH]c3C(=O)N2Cc2ccco2)ccc1OCC(C)C (stereo not drawn) | inconclusive: 25.1 µM [cytotoxic, single point] | –
3 | O=C(Nc1ccc2c(c1)OCCO2)c1ccc2nccnc2c1 | inconclusive: 5.01 µM [cytotoxic, partial curve] | –
4 | Brc1ccccc1-c1nc(-c2ccccc2)no1 | active: 12.6 µM | –
5 | CCN(CC)CC#CCC(O)(c1ccccc1)C1CCCC1 (stereo not drawn) | inconclusive: 8.91 µM [cytotoxic, partial curve] | –
6 | Cc1cc2c(cc1S(=O)(=O)Nc1ccc(OC(F)(F)F)cc1)OCC(=O)N2 | – | inactive: -4.06%
7 | COc1ccc(-c2cc(C(N)=O)nc(N3CCCCCC3)n2)cc1 | active: 7.94 µM | –
8 | OCCCN1c2ccccc2Nc2nnc(-c3ccccc3)cc21 | active: 12.6 µM | –
9 | CCCCCN=Cc1c(C)[nH]n(-c2nc3ccccc3s2)c1=O | active: 1 µM | –
10 | O=C(c1ccc2c(c1)N(Cc1ccccc1F)C(=O)c1ccccc1S2(=O)=O)N1CCN(c2ccccn2)CC1 | – | inactive: -22.7%
11 | COc1cccc(C2Nc3ccccc3C(=O)N2O)c1O (stereo not drawn) | inconclusive: 12.6 µM [cytotoxic, single point] | –
12 | CSc1nc(Nc2ccc(F)cc2)cc(-c2ccccc2)n1 | inconclusive: 35.5 µM [cytotoxic, single point] | –
13 | Cc1cc(C)cc(-n2c(C)cc(C(=O)C(=O)Nc3ccccc3F)c2C)c1 | – | inactive: -0.852%
14 | CCC(=O)C1=C(c2ccc(F)cc2)N(C(=O)CC)n2cnnc2S1 | – | inactive: 8.57%
15 | COc1cccc(/C=N/n2c(C)c3c(C)nnc(C)c3c2C)c1O | inconclusive: 31.6 µM [cytotoxic, single point] | –
16 | CC(C)NC(=O)[C@@H]1C[C@H]1[C@@H](NC(=O)OCc1ccccc1)c1ccccc1 | – | inactive: 7.42%
17 | O=c1[nH]c2ccc(NCc3ccc(-c4ccc(Br)cc4)o3)cc2[nH]1 | inconclusive: 0.891 µM [cytotoxic, single point] | –
18 | Cc1cccc(OCC(=O)Nc2cccc(-c3nnc(-c4ccccc4)o3)c2)c1C | inconclusive: 12.6 µM [cytotoxic, single point] | –
19 | N#Cc1cccc(-c2ccc3ncnc(NCc4ccccc4)c3c2)c1 | inconclusive: 31.6 µM [cytotoxic, single point] | –
20 | CCOC(=O)C1CCCN(C(=O)c2cc(Nc3ccc(OC)c(OC)c3)nc3ccccc23)C1 (stereo not drawn) | inconclusive: 20 µM [cytotoxic, single point] | –
21 | CCOc1ccc(NC(=O)c2ncoc2-c2ccco2)cc1 | active: 12.6 µM | –
22 | CCCCN1C(=O)C(O)(CC(=O)c2ccc(C(C)(C)C)cc2)c2ccccc21 (stereo not drawn) | inconclusive: 31.6 µM [cytotoxic, single point] | –
23 | COc1cccc(CNC(=O)C2CCN(S(=O)(=O)c3ccc4c(c3)CCCN4C(C)=O)CC2)c1 | – | inactive: 26.8%
24 | CC(C)Oc1cc(O)c2c(=O)c(-c3ccc(O)cc3)coc2c1 | inconclusive: 5.01 µM [cytotoxic, partial curve] | –
25 | O=C(COc1ccccc1)Nc1ccc2nc(SCC(=O)N3CCOCC3)sc2c1 | inconclusive: 20 µM [cytotoxic, single point] | –

Row | Compound | Potency | activity change, negative = cytotoxicity
26 | CCC(C)Nc1ncnc2c1cnn2-c1ccc(F)cc1 (stereo not drawn) | inconclusive: 15.8 µM [cytotoxic, single point] | –
27 | COc1ccc(C(=O)Nc2cccc(-c3nc4ncccc4o3)c2C)cc1OC | inconclusive: 25.1 µM [cytotoxic, single point] | –
28 | CCN(Cc1ccccc1)S(=O)(=O)c1ccc(-c2coc(C)n2)cc1 | inconclusive: 3.16 µM [cytotoxic, single point] | –
29 | Fc1ccc(C2=CC(c3ccc(F)cc3)n3c(nc4ccccc43)N2)cc1 (stereo not drawn) | active: 10 µM | –
30 | Cc1csc(NC(=O)c2sc3nc(-c4cccs4)ccc3c2N)n1 | – | inactive: -23%
31 | CC(C)(C)c1ccc(OCc2nnc(-c3ccccc3)o2)cc1 | inconclusive: 14.1 µM [cytotoxic, partial curve] | –
32 | COc1cc(OC)c(NS(=O)(=O)c2ccc3oc(=O)c4ncn(C)c4c3c2)cc1Cl | – | inactive: 3.55%
33 | O=C(CCC1N=C2c3ccccc3N=C(SCc3ccc(Cl)cc3)N2C1=O)N1CCN(c2ccccc2)CC1 (stereo not drawn) | – | inactive: 2.78%
34 | O=C(Nc1ccc2c(c1)OCO2)OCc1ccccc1 | inconclusive: 15.8 µM [cytotoxic, partial curve] | –
35 | COc1cc2cc3c4c(cc(OC)c(OC)c4c2cc1OC)CCN3C | active: 31.6 µM | –
36 | COc1cc(C(=O)N2CCN(C(=O)COc3ccc4ccccc4c3)CC2)cc(OC)c1OC | inconclusive: 20 µM [cytotoxic, single point] | –
37 | c1ccc2c(c1)CCN(c1nc3ccccc3n3cnnc13)C2 | inconclusive: 31.6 µM [cytotoxic, single point] | –
38 | Cc1cccc(NC(=O)c2cc3ccccc3c(=O)o2)n1 | inconclusive: 0.794 µM [cytotoxic, full curve] | –
39 | Oc1[nH]c2ccccc2c1C=Nc1ccc2c(c1)OCCO2 | inconclusive: 12.6 µM [cytotoxic, single point] | –
40 | COc1ccc(-n2nc3c(N4CCCC(C(=O)NCc5ccc(C)cc5)C4)nnc(C)c3c2C)cc1 (stereo not drawn) | inconclusive: 20 µM [cytotoxic, partial curve] | –
41 | Cc1ccccc1-c1cc(NCc2ccccc2)ncn1 | inconclusive: 7.94 µM [cytotoxic, partial curve] | –
42 | CS(=O)(=O)Nc1cccc(-c2ccc3ncnc(NCc4cccnc4)c3c2)c1 | – | inactive: -5.44%
43 | CCC(=O)N1CCc2cc(Br)cc(S(=O)(=O)N3CCC(C(=O)Nc4ccccc4CC)CC3)c21 | – | inactive: 4.2%
44 | CCCCN1C(=O)c2[nH]nc(-c3ccccc3O)c2C1c1ccc(C(C)(C)C)cc1 (stereo not drawn) | inconclusive: 31.6 µM [cytotoxic, single point] | –
45 | Cc1cc(C(=O)NC2=NCCS2)cs1 | inconclusive: 10 µM [cytotoxic, partial curve] | –
46 | CC(C)Oc1ccc2c(=O)c3cc(C(=O)O)ccc3oc2c1 | – | inactive: -27.1%
47 | CCc1nnc(-n2nc(C)cc2-c2ccccc2)n1N | inconclusive: 0.0794 µM [cytotoxic, full curve, poor fit] | –
48 | Cc1ccc(C(=O)Nc2ccccc2C(=O)NC(CC(=O)O)C(=O)O)cc1 (stereo not drawn) | – | inactive: -23.6%
49 | Cc1cc(C)nc(NC(=NCCc2c[nH]c3ccc(Cl)cc23)NC(=O)c2ccccc2C)n1 | inconclusive: 31.6 µM [cytotoxic, single point] | –
50 | CCC(=O)N1CCN(c2ccc(NC(=O)c3cc4ccccc4o3)cc2Cl)CC1 | inconclusive: 31.6 µM [cytotoxic, single point] | –

Row | Compound | Potency | activity change, negative = cytotoxicity
51 | CCc1ccc(NC(=O)CC2C(=O)N(c3ccc(Cl)cc3)C(=O)N2Cc2ccco2)cc1 (stereo not drawn) | – | inactive: -27.7%
52 | COc1ccc(-c2cc(=O)c3ccc(O)cc3o2)cc1 | inconclusive: 15.8 µM [cytotoxic, partial curve] | –
53 | CCOCC(=O)Nc1nc2ccc(OC)cc2s1 | inconclusive: 15.8 µM [cytotoxic, partial curve] | –
54 | Cc1cc2c(cc1C)NC(CC(=O)Nc1cccc(Cl)c1)C(=O)N2 (stereo not drawn) | inconclusive: 31.6 µM [cytotoxic, single point] | –
55 | OCc1cc(C(O)CNCCCCCCOCCCCc2ccccc2)ccc1O (stereo not drawn) | inconclusive: 12.6 µM [cytotoxic, single point] | –
56 | CCC1CCCCN1S(=O)(=O)c1ccc(S(=O)(=O)N2CCN(S(=O)(=O)CC)CC2)cc1 (stereo not drawn) | inconclusive: 20 µM [cytotoxic, single point] | –
57 | COc1ccccc1C1Nc2c(sc3nc(C)cc(C)c23)C(=O)N1c1ccccc1 (stereo not drawn) | inconclusive: 20 µM [cytotoxic, single point] | –
58 | Cc1cccc(N2CCN(S(=O)(=O)c3ccc(-c4cc(C(F)(F)F)on4)s3)CC2)c1C | – | inactive: 7.8%
59 | CC(=O)Nc1ccc(SCC(=O)c2cc(C)n(Cc3cccs3)c2C)cc1 | active: 2.51 µM | –
60 | Nc1ccc(-c2nc3c(Cl)c(N)ccc3[nH]2)cc1 | inconclusive: 20 µM [cytotoxic, partial curve] | –
61 | Cc1noc(C)c1C(=O)Nc1nnc(-c2ccccc2)s1 | inconclusive: 15.8 µM [cytotoxic, partial curve, poor fit] | –
62 | COc1ccc(/C=C/C(=O)Nc2sc(C)c(C)c2C(=O)O)cc1 | active: 2.51 µM | –
63 | CCc1ccc(C(=O)COC(=O)CNC(=O)c2ccco2)cc1 | – | inactive: -8.26%
64 | CSc1ccc(CNc2ccccn2)cc1 | inconclusive: 25.1 µM [cytotoxic, single point] | –
65 | CN(C)c1ccc(C2C=C(c3ccccc3)Nc3nnnn32)cc1 (stereo not drawn) | inconclusive: 35.5 µM [cytotoxic, single point] | –
66 | CCOc1cccc2cc(-c3cn4cc(C)ccc4n3)c(=O)oc12 | inconclusive: 0.794 µM [cytotoxic, full curve] | –
67 | COc1cccc(-c2nnc(-c3ccc(C)o3)o2)c1 | active: 12.6 µM | –
68 | CC1CCCc2sc3nc(NCc4ccco4)n4ncnc4c3c21 (stereo not drawn) | – | inactive: 2.3%
69 | Cc1cccc(CCNC(=O)c2cnc3c(C)cccn3c2=O)c1 | inconclusive: 15.8 µM [cytotoxic, partial curve] | –
70 | O=C(Nc1cccc(Cl)c1)N1CCC(CN2CCOCC2)CC1 | – | inactive: -3.23%
71 | FC(F)(F)c1ccccc1-c1nc(Nc2ccncc2)c2ccccc2n1 | inconclusive: 31.6 µM [cytotoxic, single point] | –
72 | COc1cccc(-c2nc(N3CCNCC3)c3ccccc3n2)c1 | – | inactive: -9.01%
73 | C[C@@H](NC(=O)c1coc(=O)c(Br)c1)c1ccccc1 | inconclusive: 31.6 µM [cytotoxic, single point] | –
